Measured values as given in the supplement of paper PMC4604168 (melanoma cell lines).
The list shows a part of the results. Single values are uncertain, as repeats are few or missing.

Key:
Test in all cases: cell count relative to DMSO control; melanoma cells; higher = more viable cells
Conditions in all cases: library dose: low library concentration; 72 h
WM115 = tested on: WM115
WM1716 = tested on: WM1716
WM1745 = tested on: WM1745
WM3526 = tested on: WM3526
WM3619 = tested on: WM3619
WM451Lu = tested on: WM451Lu
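Further: cell number obtained by counting DAPI-stained nuclei in high-throughput microscope images with image analysis software, screen run in 1,536-well plates.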

Row | SMILES | cell count (WM115) [%] | cell count (WM1716) [%] | cell count (WM1745) [%] | cell count (WM3526) [%] | cell count (WM3619) [%] | cell count (WM451Lu) [%]
1 | CC(=O)c1c(C)c2cnc(Nc3ccc(N4CCNCC4)cn3)nc2n(C2CCCC2)c1=O [palbociclib] + COc1ccc(COc2ccc(Cc3cnc(N)nc3N)cc2OC)cc1 [GW2580] (first compound 0.04 µM, partner dose 1 µM) | 72.9 | 55.7 | 66.3 | 74.8 | 81.2 | 78.4
2 | Nc1ccn([C@@H]2O[C@H](CO)[C@@H](O)C2(F)F)c(=O)n1 [gemcitabine] + COC(=O)c1sccc1S(=O)(=O)Nc1ccc(Nc2ccccc2)cc1OC [GSK0660] (first compound 0.0004 µM, partner dose 1 µM) | 93.6 | 123 | 70.6 | 90.3 | 64.6 | 91.7
3 | CC(=O)O[C@@]12CO[C@@H]1C[C@H](O)[C@@]1(C)C(=O)[C@H](O)C3=C(C)[C@@H](OC(=O)[C@H](O)[C@@H](NC(=O)OC(C)(C)C)c4ccccc4)C[C@@](O)([C@@H](OC(=O)c4ccccc4)[C@H]21)C3(C)C [Docetaxel] + Cc1nc(Nc2ncc(C(=O)Nc3c(C)cccc3Cl)s2)cc(N2CCN(CCO)CC2)n1 [dasatanib] (first compound 0.0001 µM, partner dose 0.004 µM) | 57.8 | 32.5 | 41 | 46.3 | 65.6 | 62.1
4 | Nc1ncn([C@H]2C[C@H](O)[C@@H](CO)O2)c(=O)n1 [decitabine] + CC(C)CCN1c2nc(Nc3cc(F)c(O)c(F)c3)ncc2N(C)C(=O)C1C [BID1870] (first compound 0.1 µM, partner dose 0.2 µM) | 88.5 | 58.1 | 106 | 93.3 | 61.3 | 107
5 | Nc1ccn([C@@H]2O[C@H](CO)[C@@H](O)C2(F)F)c(=O)n1 [gemcitabine] + O=C(O)C(=O)Nc1sc2c(c1C(=O)O)CCNC2 [TCS401] (first compound 0.0004 µM, partner dose 1.66667 µM) | 96.1 | 104 | 71 | 82.6 | 85.8 | 106
6 | CC(=O)O[C@@]12CO[C@@H]1C[C@H](O)[C@@]1(C)C(=O)[C@H](O)C3=C(C)[C@@H](OC(=O)[C@H](O)[C@@H](NC(=O)OC(C)(C)C)c4ccccc4)C[C@@](O)([C@@H](OC(=O)c4ccccc4)[C@H]21)C3(C)C [Docetaxel] + COc1ccc(COc2ccc(Cc3cnc(N)nc3N)cc2OC)cc1 [GW2580] (first compound 0.0001 µM, partner dose 1 µM) | 57.8 | 31.8 | 26 | 24.8 | 43.2 | 40.9
7 | CC(=O)O[C@@]12CO[C@@H]1C[C@H](O)[C@@]1(C)C(=O)[C@H](O)C3=C(C)[C@@H](OC(=O)[C@H](O)[C@@H](NC(=O)OC(C)(C)C)c4ccccc4)C[C@@](O)([C@@H](OC(=O)c4ccccc4)[C@H]21)C3(C)C [Docetaxel] + COC(=O)c1sccc1S(=O)(=O)Nc1ccc(Nc2ccccc2)cc1OC [GSK0660] (first compound 0.0001 µM, partner dose 1 µM) | 61.6 | 38.1 | 60.9 | 32.6 | 93.2 | 53.8
8 | Nc1nc(F)nc2c1ncn2[C@@H]1O[C@H](CO)[C@@H](O)[C@@H]1O [fludarabine] + OCc1c[nH]c2ccccc12 [Indole-3-carbinol] (first compound 0.2 µM, partner dose 0.8 µM) | 104 | 89.7 | 99.1 | 29.3 | 75.4 | 53.9
9 | CC(=O)O[C@@]12CO[C@@H]1C[C@H](O)[C@@]1(C)C(=O)[C@H](O)C3=C(C)[C@@H](OC(=O)[C@H](O)[C@@H](NC(=O)OC(C)(C)C)c4ccccc4)C[C@@](O)([C@@H](OC(=O)c4ccccc4)[C@H]21)C3(C)C [Docetaxel] + Cn1nnc2c(C(N)=O)ncn2c1=O [temozolomide] (first compound 0.0001 µM, partner dose 2 µM) | 61.4 | 32.3 | 48.5 | 35.1 | 56 | 54.1
10 | CO[C@H]1C[C@@H]2CC[C@@H](C)[C@@](O)(O2)C(=O)C(=O)N2CCCC[C@H]2C(=O)O[C@H]([C@H](C)C[C@@H]2CC[C@@H](OCCO)[C@H](OC)C2)CC(=O)[C@H](C)/C=C(\C)[C@@H](O)[C@@H](OC)C(=O)[C@H](C)C[C@H](C)/C=C/C=C/C=C/1C [everolimus] + NC(=O)Nc1cc(-c2cccc(F)c2)sc1C(=O)N[C@H]1CCCNC1 [AZD7762] (first compound 0.02 µM, partner dose 0.02 µM) | 82.1 | 76.5 | 69 | 53.3 | 44.6 | 65.4
11 | CC(=O)O[C@@]12CO[C@@H]1C[C@H](O)[C@@]1(C)C(=O)[C@H](O)C3=C(C)[C@@H](OC(=O)[C@H](O)[C@@H](NC(=O)OC(C)(C)C)c4ccccc4)C[C@@](O)([C@@H](OC(=O)c4ccccc4)[C@H]21)C3(C)C [Docetaxel] + CC(C)CCN1c2nc(Nc3cc(F)c(O)c(F)c3)ncc2N(C)C(=O)C1C [BID1870] (first compound 0.0001 µM, partner dose 0.2 µM) | 60.2 | 42.4 | 53.5 | 24.6 | 71.1 | 48.5
12 | Nc1ncn([C@H]2C[C@H](O)[C@@H](CO)O2)c(=O)n1 [decitabine] + Cn1c(Nc2ccc(C(F)(F)F)cc2)nc2cc(Oc3ccnc(-c4ncc(C(F)(F)F)[nH]4)c3)ccc21 [CHIR265] (first compound 0.1 µM, partner dose 0.08 µM) | 60.6 | 57.8 | 74.5 | 47.2 | 80.9 | 85.9
13 | CO[C@H]1C[C@@H]2CC[C@@H](C)[C@@](O)(O2)C(=O)C(=O)N2CCCC[C@H]2C(=O)O[C@H]([C@H](C)C[C@@H]2CC[C@@H](OCCO)[C@H](OC)C2)CC(=O)[C@H](C)/C=C(\C)[C@@H](O)[C@@H](OC)C(=O)[C@H](C)C[C@H](C)/C=C/C=C/C=C/1C [everolimus] + CN(NC(=O)CC(=O)NN(C)C(=S)c1ccccc1)C(=S)c1ccccc1 [STA4783] (first compound 0.02 µM, partner dose 0.006 µM) | 75.3 | 65.3 | 48.7 | 65.6 | 56.6 | 68.1
14 | Nc1ccn([C@@H]2O[C@H](CO)[C@@H](O)C2(F)F)c(=O)n1 [gemcitabine] + c1cc(-c2cnn3cc(-c4ccc(OCCN5CCCCC5)cc4)cnc23)ccn1 [Dorsomorphin] (first compound 0.0004 µM, partner dose 0.4 µM) | 94.1 | 86.7 | 69.9 | 100 | 69.1 | 105
15 | Nc1ncn([C@H]2C[C@H](O)[C@@H](CO)O2)c(=O)n1 [decitabine] + O=C(Nc1ccccc1)c1cc([N+](=O)[O-])ccc1Cl [GW9662] (first compound 0.1 µM, partner dose 2 µM) | 91.6 | 91.4 | 95.6 | 83.2 | 111 | 94.9
16 | CO[C@H]1C[C@@H]2CC[C@@H](C)[C@@](O)(O2)C(=O)C(=O)N2CCCC[C@H]2C(=O)O[C@H]([C@H](C)C[C@@H]2CC[C@@H](OCCO)[C@H](OC)C2)CC(=O)[C@H](C)/C=C(\C)[C@@H](O)[C@@H](OC)C(=O)[C@H](C)C[C@H](C)/C=C/C=C/C=C/1C [everolimus] + Cc1ccc(NC(=O)c2cccc(N(C)C)c2)cc1NC(=O)c1ccc(O)cc1 [ZM336372] (first compound 0.02 µM, partner dose 2 µM) | 68.4 | 89.3 | 74.7 | 65.6 | 63 | 99.2
17 | Nc1ncn([C@H]2C[C@H](O)[C@@H](CO)O2)c(=O)n1 [decitabine] + O=C(O)C(=O)Nc1sc2c(c1C(=O)O)CCNC2 [TCS401] (first compound 0.1 µM, partner dose 1.66667 µM) | 78.6 | 82.2 | 78.8 | 75.8 | 95.2 | 99.4
18 | Nc1ccn([C@@H]2O[C@H](CO)[C@@H](O)C2(F)F)c(=O)n1 [gemcitabine] + Cc1cc(N2CCOCC2)cc2[nH]c(-c3c(NC[C@@H](O)c4cccc(Cl)c4)cc[nH]c3=O)nc12 [BMS536924] (first compound 0.0004 µM, partner dose 0.2 µM) | 107 | 103 | 69.7 | 114 | 75.6 | 65.7
19 | Nc1ncn([C@H]2C[C@H](O)[C@@H](CO)O2)c(=O)n1 [decitabine] + COC(=O)c1sccc1S(=O)(=O)Nc1ccc(Nc2ccccc2)cc1OC [GSK0660] (first compound 0.1 µM, partner dose 1 µM) | 83.6 | 69.5 | 95.6 | 90.7 | 82.6 | 93
20 | Nc1ccn([C@@H]2O[C@H](CO)[C@@H](O)C2(F)F)c(=O)n1 [gemcitabine] + CCCCCCCCCCCC1=C(O)C(=O)C=C(O)C1=O [Embelin] (first compound 0.0004 µM, partner dose 1.2 µM) | 94.3 | 61.4 | 75.1 | 125 | 92.2 | 89
